Measurements taken from the BET-seq Pho4 binding data (Le et al. 2018).
The other results are listed elsewhere or left out. Values were computed here from the reads of four pooled replicates and scatter widely.

Each sequence was assayed against T1, Pho4 (S. cerevisiae) (UniProt P07270) (assay: relative binding free energy (BET-seq); higher = weaker binding). Settings: reference: library average.
T1 sequence: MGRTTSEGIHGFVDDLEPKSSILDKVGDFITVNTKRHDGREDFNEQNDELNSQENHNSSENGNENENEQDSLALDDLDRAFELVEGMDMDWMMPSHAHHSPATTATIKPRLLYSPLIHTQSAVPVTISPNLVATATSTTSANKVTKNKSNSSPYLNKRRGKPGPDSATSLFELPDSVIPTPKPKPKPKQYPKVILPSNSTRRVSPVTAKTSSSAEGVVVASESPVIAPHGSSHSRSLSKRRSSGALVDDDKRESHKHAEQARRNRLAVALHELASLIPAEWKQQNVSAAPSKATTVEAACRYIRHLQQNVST
In the case of TGTGACACGTGGGCAG, the “relative binding free energy” value is reported as -0.36 kcal/mol. For TAGGTCACGTGTCTTT, the “relative binding free energy” value was 0.15 kcal/mol. In the case of TGGTACACGTGTTAAT, the “relative binding free energy” value is reported as 0.03 kcal/mol. For TTTTTCACGTGTATAT, the “relative binding free energy” value was 0.21 kcal/mol. For GTTCACACGTGGGTCG, the “relative binding free energy” value was -0.03 kcal/mol. GTCGTCACGTGTATGG was tested, and the “relative binding free energy” value was 0.24 kcal/mol. ACGAACACGTGTGGGT was tested, and the “relative binding free energy” value was 0.14 kcal/mol. ATTTACACGTGGCTGG was tested, and the “relative binding free energy” value was -0.06 kcal/mol. In the case of AGAGTCACGTGGGTTC, the “relative binding free energy” value is reported as -0.12 kcal/mol. In the case of GTGTTCACGTGTGTGC, the “relative binding free energy” value is reported as 0.26 kcal/mol. With GTATTCACGTGAGTGT the “relative binding free energy” value was 0.45 kcal/mol. TGTATCACGTGGAGAG was tested, and the “relative binding free energy” value was 0.14 kcal/mol. TATATCACGTGTTGGA was tested, and the “relative binding free energy” value was 0.26 kcal/mol. In the case of TTTGTCACGTGGTTTC, the “relative binding free energy” value is reported as 0.09 kcal/mol. For AATGTCACGTGAGATA, the “relative binding free energy” value was 0.3 kcal/mol. TAGTTCACGTGGTAAT was tested, and the “relative binding free energy” value was 0.33 kcal/mol. TAGCGCACGTGCGGTT was tested, and the “relative binding free energy” value was -0.14 kcal/mol. With CGTGACACGTGGTCGT the “relative binding free energy” value was -0.11 kcal/mol. With TTCTACACGTGTTATA the “relative binding free energy” value was 0.02 kcal/mol. In the case of TATCACACGTGTAGTG, the “relative binding free energy” value is reported as 0 kcal/mol. With TGCTTCACGTGGAATT the “relative binding free energy” value was 0.35 kcal/mol. TGAGTCACGTGTGTCG was tested, and the “relative binding free energy” value was 0.07 kcal/mol. With ATTTTCACGTGAAGGC the “relative binding free energy” value was 0.34 kcal/mol. In the case of AGAGTCACGTGTTCTG, the “relative binding free energy” value is reported as 0.25 kcal/mol. For GGCGGCACGTGAATGG, the “relative binding free energy” value was 0.29 kcal/mol. In the case of CGTGGCACGTGCAGTG, the “relative binding free energy” value is reported as -0.27 kcal/mol. In the case of GGTTGCACGTGAAGCG, the “relative binding free energy” value is reported as 0.26 kcal/mol. AGTATCACGTGCTGGT was tested, and the “relative binding free energy” value was 0.18 kcal/mol. For TTGATCACGTGGGGCG, the “relative binding free energy” value was 0.06 kcal/mol. In the case of GGAGTCACGTGGTTAG, the “relative binding free energy” value is reported as 0.12 kcal/mol. In the case of TAGTGCACGTGGCAGA, the “relative binding free energy” value is reported as -0.08 kcal/mol. In the case of AATCGCACGTGGAGTG, the “relative binding free energy” value is reported as 0 kcal/mol. In the case of TGGTACACGTGAAGGT, the “relative binding free energy” value is reported as 0.34 kcal/mol. With TGTCTCACGTGATGGC the “relative binding free energy” value was 0.15 kcal/mol. In the case of TTGGTCACGTGGTACA, the “relative binding free energy” value is reported as -0.05 kcal/mol. GATTACACGTGGGCAG was tested, and the “relative binding free energy” value was 0.15 kcal/mol. GGATTCACGTGCGGGT was tested, and the “relative binding free energy” value was 0.31 kcal/mol. AGCGGCACGTGGGGAC was tested, and the “relative binding free energy” value was -0.07 kcal/mol. ATTTGCACGTGTCTAG was tested, and the “relative binding free energy” value was 0.02 kcal/mol. GGGGTCACGTGTAGCG was tested, and the “relative binding free energy” value was 0.13 kcal/mol. With AAGGACACGTGCGGTT the “relative binding free energy” value was 0 kcal/mol. For TAATACACGTGGTTTA, the “relative binding free energy” value was -0.01 kcal/mol. TTGAGCACGTGTCGTG was tested, and the “relative binding free energy” value was -0.09 kcal/mol. With GTTATCACGTGGACTA the “relative binding free energy” value was 0.28 kcal/mol. GTCGGCACGTGGGTGC was tested, and the “relative binding free energy” value was -0.17 kcal/mol. For GGTTTCACGTGCGATG, the “relative binding free energy” value was 0.23 kcal/mol. For ATTCTCACGTGCTGGG, the “relative binding free energy” value was 0.22 kcal/mol. With AGTTCCACGTGAGTGT the “relative binding free energy” value was 0.2 kcal/mol. For GCAAGCACGTGTGGTG, the “relative binding free energy” value was -0.07 kcal/mol. GGTTGCACGTGGGGTC was tested, and the “relative binding free energy” value was -0.06 kcal/mol. With TTTCTCACGTGGGAGG the “relative binding free energy” value was 0.27 kcal/mol. In the case of TTATGCACGTGTTTAG, the “relative binding free energy” value is reported as -0.11 kcal/mol. For AGAAGCACGTGGGGGC, the “relative binding free energy” value was -0.24 kcal/mol. AGGTGCACGTGGGCTT was tested, and the “relative binding free energy” value was -0.12 kcal/mol. For TTGGCCACGTGTGGCT, the “relative binding free energy” value was -0.04 kcal/mol. In the case of TTTTACACGTGTAAGC, the “relative binding free energy” value is reported as 0.32 kcal/mol. For ATGTTCACGTGAGGCA, the “relative binding free energy” value was 0.25 kcal/mol. In the case of ACGGGCACGTGGGTTC, the “relative binding free energy” value is reported as -0.29 kcal/mol. For AGATGCACGTGGGTTT, the “relative binding free energy” value was -0.14 kcal/mol. GTGTGCACGTGATCGT was tested, and the “relative binding free energy” value was 0.05 kcal/mol. For CGGGGCACGTGTTGGC, the “relative binding free energy” value was 0.08 kcal/mol. For CGGTTCACGTGAAAGG, the “relative binding free energy” value was 0.22 kcal/mol. In the case of TGTCTCACGTGGAAGG, the “relative binding free energy” value is reported as 0.19 kcal/mol. For GTGGTCACGTGACGCG, the “relative binding free energy” value was 0.14 kcal/mol. With CGGGGCACGTGGCATG the “relative binding free energy” value was -0.23 kcal/mol. For TTTAGCACGTGAAGTT, the “relative binding free energy” value was 0.23 kcal/mol. In the case of GAGTACACGTGGAGTT, the “relative binding free energy” value is reported as 0.18 kcal/mol. TTTTACACGTGTAGTA was tested, and the “relative binding free energy” value was 0.23 kcal/mol. In the case of GAGCTCACGTGTATGT, the “relative binding free energy” value is reported as 0.29 kcal/mol. In the case of CGCTTCACGTGTAGGT, the “relative binding free energy” value is reported as 0.38 kcal/mol. In the case of TTGTACACGTGCAGTT, the “relative binding free energy” value is reported as 0.26 kcal/mol. For TGTGCCACGTGTGCGG, the “relative binding free energy” value was -0.12 kcal/mol. With AGGGTCACGTGTGACT the “relative binding free energy” value was 0.15 kcal/mol. For TCTTGCACGTGGTGGC, the “relative binding free energy” value was -0.02 kcal/mol. ATAGACACGTGTGGGA was tested, and the “relative binding free energy” value was -0.03 kcal/mol. With GTCACCACGTGGGTGT the “relative binding free energy” value was -0.13 kcal/mol. For GTGGTCACGTGCAATG, the “relative binding free energy” value was 0.13 kcal/mol. For GAGCGCACGTGCGGGT, the “relative binding free energy” value was -0.1 kcal/mol. GGAGGCACGTGGGAGC was tested, and the “relative binding free energy” value was -0.22 kcal/mol. For AACGACACGTGGGGGT, the “relative binding free energy” value was -0.16 kcal/mol. AAATTCACGTGAAGTT was tested, and the “relative binding free energy” value was 0.5 kcal/mol. In the case of GGAGACACGTGTCGGT, the “relative binding free energy” value is reported as -0.05 kcal/mol. With CTTGGCACGTGGGCTT the “relative binding free energy” value was -0.23 kcal/mol. TGTATCACGTGTAGCG was tested, and the “relative binding free energy” value was 0.18 kcal/mol. For GACGGCACGTGTGGGT, the “relative binding free energy” value was 0 kcal/mol. For GTGTTCACGTGTATAG, the “relative binding free energy” value was 0.23 kcal/mol. With AGTTGCACGTGAAGTG the “relative binding free energy” value was 0.18 kcal/mol. With TAGTGCACGTGCTTTT the “relative binding free energy” value was 0.03 kcal/mol. GAAATCACGTGAGGCA was tested, and the “relative binding free energy” value was 0.61 kcal/mol. In the case of TGTAGCACGTGGCCGT, the “relative binding free energy” value is reported as -0.2 kcal/mol. For GAGTTCACGTGGTTAG, the “relative binding free energy” value was 0.24 kcal/mol. TAGTCCACGTGTTTAT was tested, and the “relative binding free energy” value was 0.04 kcal/mol. GCGAACACGTGGGGGT was tested, and the “relative binding free energy” value was -0.13 kcal/mol. With AGGGACACGTGCGTGA the “relative binding free energy” value was -0.06 kcal/mol. GCGATCACGTGGGGTT was tested, and the “relative binding free energy” value was 0 kcal/mol. TGTCACACGTGTTGTA was tested, and the “relative binding free energy” value was 0.12 kcal/mol. With TTGTTCACGTGTGCTG the “relative binding free energy” value was 0.27 kcal/mol. With ATGGGCACGTGGAGCT the “relative binding free energy” value was -0.14 kcal/mol. With GATGTCACGTGTGGCT the “relative binding free energy” value was 0.17 kcal/mol. CTCGGCACGTGGCGGT was tested, and the “relative binding free energy” value was -0.04 kcal/mol. In the case of GATTGCACGTGGGAAT, the “relative binding free energy” value is reported as 0.03 kcal/mol. For TGGTTCACGTGCGACG, the “relative binding free energy” value was 0.33 kcal/mol. ATTTGCACGTGGACTT was tested, and the “relative binding free energy” value was -0.11 kcal/mol. For ATTTCCACGTGAGGTT, the “relative binding free energy” value was 0.2 kcal/mol. ATCTGCACGTGAGAGG was tested, and the “relative binding free energy” value was 0.23 kcal/mol. With AGGGACACGTGGATGT the “relative binding free energy” value was -0.04 kcal/mol. For TTGGTCACGTGGACGT, the “relative binding free energy” value was 0.14 kcal/mol. With AAGAGCACGTGTGGTA the “relative binding free energy” value was -0.2 kcal/mol. With ACTGACACGTGGGAGT the “relative binding free energy” value was -0.05 kcal/mol. For TACATCACGTGTGGGT, the “relative binding free energy” value was 0.16 kcal/mol. In the case of CGGGTCACGTGTAAGT, the “relative binding free energy” value is reported as 0.17 kcal/mol. TAGTTCACGTGTGCAT was tested, and the “relative binding free energy” value was 0.31 kcal/mol. With AGCAGCACGTGCGGGG the “relative binding free energy” value was -0.06 kcal/mol. With GAGGGCACGTGTGCAT the “relative binding free energy” value was 0.02 kcal/mol. In the case of GTCGGCACGTGTGTTA, the “relative binding free energy” value is reported as 0.02 kcal/mol. TTTTTCACGTGTGACA was tested, and the “relative binding free energy” value was 0.11 kcal/mol. For GATAGCACGTGGTTAT, the “relative binding free energy” value was -0.01 kcal/mol. With CATTGCACGTGTAGGT the “relative binding free energy” value was 0.04 kcal/mol. With TGAATCACGTGGATTT the “relative binding free energy” value was 0.16 kcal/mol. In the case of TGTAACACGTGAAGTT, the “relative binding free energy” value is reported as 0.31 kcal/mol. In the case of CCGGGCACGTGTTGGG, the “relative binding free energy” value is reported as -0.1 kcal/mol. For ATAAACACGTGGTGGG, the “relative binding free energy” value was -0.15 kcal/mol. For GGCTGCACGTGGGTTA, the “relative binding free energy” value was -0.24 kcal/mol. TGTGTCACGTGCTAAT was tested, and the “relative binding free energy” value was 0.13 kcal/mol. With TACAGCACGTGGAGTT the “relative binding free energy” value was 0.04 kcal/mol. CTAGACACGTGGTTTT was tested, and the “relative binding free energy” value was 0.01 kcal/mol. For GATTGCACGTGATGGT, the “relative binding free energy” value was 0.23 kcal/mol. With CTTGGCACGTGAGGTT the “relative binding free energy” value was 0.04 kcal/mol. With TCTTTCACGTGTGTAT the “relative binding free energy” value was 0.34 kcal/mol. For TTACGCACGTGGTTCG, the “relative binding free energy” value was -0.09 kcal/mol. TCGAGCACGTGTGGAA was tested, and the “relative binding free energy” value was 0.07 kcal/mol. TTTGACACGTGAAAAG was tested, and the “relative binding free energy” value was 0.24 kcal/mol. TTTTGCACGTGCCTTT was tested, and the “relative binding free energy” value was -0.03 kcal/mol. With TGGTTCACGTGTCGCG the “relative binding free energy” value was 0.22 kcal/mol. In the case of GTAGTCACGTGTTTGG, the “relative binding free energy” value is reported as 0.1 kcal/mol. In the case of AAATGCACGTGTGAAG, the “relative binding free energy” value is reported as 0.07 kcal/mol. With TTGATCACGTGGGGAG the “relative binding free energy” value was 0 kcal/mol. With AATTTCACGTGGTGTT the “relative binding free energy” value was 0.24 kcal/mol. For ATGGGCACGTGGGCTT, the “relative binding free energy” value was -0.19 kcal/mol. For GGGTGCACGTGGCGTG, the “relative binding free energy” value was -0.07 kcal/mol. With GTGATCACGTGTGGCG the “relative binding free energy” value was 0.04 kcal/mol. For TGTAGCACGTGCTTGG, the “relative binding free energy” value was -0.25 kcal/mol. In the case of TCGGTCACGTGGGAGA, the “relative binding free energy” value is reported as 0.07 kcal/mol. GGTGCCACGTGTATTT was tested, and the “relative binding free energy” value was 0.08 kcal/mol. ATAATCACGTGTTGGA was tested, and the “relative binding free energy” value was 0.07 kcal/mol. With GTATGCACGTGCGTCT the “relative binding free energy” value was -0.1 kcal/mol.
